Results on two compounds are retold here after patent US12419848B2, “Treatment of hyperinflammatory syndrome” (priority 2020, dated 2025).

This assay concerns primary progressive multiple sclerosis.

Regarding `CCN(CC)CC(=O)Nc1c(C)cccc1C` [lidocaine], the “walking distance without an aid” value (after 3 months) is “about 120 meters”. The same compound displayed an EDSS (sublingual 4×100 mg/d, after 3 months, before 7.5) of 5.5.

“ocrelizumab: prior treatment of primary progressive multiple sclerosis”: the “effect on symptoms (prior treatment)” value (in vivo) is “did not improve the symptoms”.
